Test results: article PMC4336329 (PLoS ONE, 2015)
In all, about 310,000 compounds went through this assay and about 14,000 (4.5%) showed an effect of 50% or more. Effects have a minus sign here. This is one part of the list.

molecular target: human ether-à-go-go-related gene (hERG) potassium channel (human, UniProt Q12809); experiment: primary screen, population patch clamp on CHO cells stably expressing hERG
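Further: peak tail current of the secondary pulse compared with the same well before compound.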

human ether-à-go-go-related gene (hERG) potassium channel, sequence (Q12809 whole entry, looked up): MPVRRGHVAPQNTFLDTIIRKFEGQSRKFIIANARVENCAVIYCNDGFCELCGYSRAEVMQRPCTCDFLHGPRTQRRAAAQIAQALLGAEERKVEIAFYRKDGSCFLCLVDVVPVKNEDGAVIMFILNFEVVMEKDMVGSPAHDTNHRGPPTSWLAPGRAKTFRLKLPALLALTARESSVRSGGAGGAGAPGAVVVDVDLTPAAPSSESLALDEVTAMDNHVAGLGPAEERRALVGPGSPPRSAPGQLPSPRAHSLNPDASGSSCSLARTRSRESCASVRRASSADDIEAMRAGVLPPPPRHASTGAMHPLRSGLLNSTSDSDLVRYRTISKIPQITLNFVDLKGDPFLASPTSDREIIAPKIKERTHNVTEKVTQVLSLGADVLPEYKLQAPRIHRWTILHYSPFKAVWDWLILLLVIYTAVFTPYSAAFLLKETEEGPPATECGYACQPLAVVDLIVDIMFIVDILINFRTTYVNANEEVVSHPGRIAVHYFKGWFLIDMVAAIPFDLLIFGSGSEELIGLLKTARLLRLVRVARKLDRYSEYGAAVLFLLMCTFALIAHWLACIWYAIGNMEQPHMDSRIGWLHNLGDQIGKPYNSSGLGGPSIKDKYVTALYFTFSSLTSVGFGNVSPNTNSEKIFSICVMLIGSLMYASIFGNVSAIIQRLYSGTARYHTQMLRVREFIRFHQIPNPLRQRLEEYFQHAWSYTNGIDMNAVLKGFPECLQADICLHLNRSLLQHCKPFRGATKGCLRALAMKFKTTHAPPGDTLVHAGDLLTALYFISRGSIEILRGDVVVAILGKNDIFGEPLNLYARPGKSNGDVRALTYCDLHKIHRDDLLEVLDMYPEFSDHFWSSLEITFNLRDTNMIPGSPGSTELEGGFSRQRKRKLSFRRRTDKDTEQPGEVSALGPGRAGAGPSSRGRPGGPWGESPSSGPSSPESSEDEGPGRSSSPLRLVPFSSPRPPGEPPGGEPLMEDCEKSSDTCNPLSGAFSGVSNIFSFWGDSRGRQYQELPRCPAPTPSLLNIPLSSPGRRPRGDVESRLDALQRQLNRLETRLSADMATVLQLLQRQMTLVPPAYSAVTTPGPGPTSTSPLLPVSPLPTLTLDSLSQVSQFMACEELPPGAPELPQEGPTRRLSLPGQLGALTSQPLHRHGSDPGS

Structure (SMILES)	hERG current change (%, negative = inhibition) at 10uM [%]
COCCCNc1nc2ccccc2[nH]c1=O	39.2
O=C(CSc1ccccc1)N1CCN(S(=O)(=O)c2ccccc2)CC1	-4.9
CN(C)c1ccc(CN2CCCCC2)cc1	14.9
COC(=O)c1cccnc1NC(=S)NNC(=O)c1ccccc1	21.2
COc1ccccc1CCNC(=O)C(=O)NCC1OCCN1S(=O)(=O)c1ccc(Br)cc1 (centres unmarked)	-25.6
CCCOc1ccc(/C=N/Nc2ccccc2[N+](=O)[O-])c(OCCC)c1	-4.51
Cc1ccc2cc(CN(Cc3ccco3)C(=S)NCC3CCCO3)c(=O)[nH]c2c1 (centres unmarked)	-26.3
CCc1[nH]c(=O)c(C#N)c2c1CCCC2	-5.05
COC(=O)c1cc(NC2c3ccccc3C(=O)N2c2ccc(Cl)cn2)cc(C(=O)OC)c1 (centres unmarked)	19.5
CC(C)c1ccc(-c2noc(C3CCCN(S(C)(=O)=O)C3)n2)cc1 (centres unmarked)	0.5
O=C(O)c1cc2c(cn1)[nH]c1ccccc12	10.9
O=C(Cc1ccccc1)NCC(=O)Nc1ccccc1Br	16.8
CCC(=O)N1CCc2cc(Br)cc(S(=O)(=O)C3(C(=O)OC)CC3)c21	7.97
CCc1ccc(CN2CCC(n3nccc3NC(=O)c3cccc(F)c3)CC2)cc1	-75.3
O=C(NCc1ccc2c(c1)OCO2)c1nc(Cn2ccc([N+](=O)[O-])n2)no1	-19.1
COC(CNC(=O)CN1CCN(Cc2ccc(F)cc2Cl)C1=O)OC	2.5
O=C(NCCO)/C(=C\c1cccc([N+](=O)[O-])c1)NC(=O)c1ccco1	6.73
CC(=O)c1cn(CC(=O)NCc2ccco2)c2ccccc12	3.47
Cc1ccccc1C(=O)N1CCN(c2ccc([N+](=O)[O-])c(NCc3ccco3)c2)CC1	-8.95
NC(=O)CC(NC(=O)c1ccccc1)c1ccc(NCCc2cccc(F)c2)c([N+](=O)[O-])c1 (centres unmarked)	14.5
COc1ccc(NC(=O)CN(C)C(=O)CSC(c2ccccc2)c2ccccc2)cc1	-9.06
Cn1cncc1C#Cc1ccc2cc(CCCO)oc(=O)c2c1	19.9
N#C/C(=C\c1ccc(OC(F)F)cc1)C(=O)N1CCCCC1	-21.8

Structure (SMILES)	hERG current change (%, negative = inhibition) at 10uM [%]
O=C(CSc1n[nH]c(-c2ccncc2)n1)c1cccc([N+](=O)[O-])c1	-2.25
CC(NC(=O)Cc1ccc(NC2=NC3CS(=O)(=O)CC3S2)cc1)c1ccccc1 (centres unmarked)	18.1
O=C(Cc1c(F)cccc1Cl)NNC(=O)Nc1ccc2c(c1)OCO2	18.2
Cc1ccccc1C(=O)Nc1ccnn1C1CCN(Cc2cnn(C)c2)CC1	-26.5
Cc1ccc(NC(=O)CSc2nc3ccccc3c(=O)n2CCCN2CCCCC2)cc1C	-71.9
COc1ccc(C(=O)/C=C/c2ccc(N(C)C)cc2)c(OC)c1	-15.6
CCCC(OC(=O)CC1Sc2ccccc2NC1=O)C(=O)NCc1ccco1 (centres unmarked)	-13.8
Cc1nn(C)c(Oc2cccc(Cl)c2)c1C#N	8.31
COc1cccc(C(=O)NCC(=O)N/N=C(\C)Cc2ccccc2)c1	12.3
Cc1ccccc1NC(=O)C1CCN(C(=O)NC2CCCCC2)CC1	13.1
COc1cccc(CN(C(=O)Cn2nnc(-c3ccccc3F)n2)C(C(=O)NC(C)(C)C)c2ccncc2)c1 (centres unmarked)	-18.7
Cc1ccc(S(=O)(=O)N2CCOCC2)cc1C(=O)NCc1ccccc1CN1CCCC1	-53
CCCNC(=O)c1onc(CSc2ccc(F)cc2)c1C(=O)NC(C)C	-5.38
CCOC(=O)c1c[nH]n(-c2ccc(C)cc2)c1=O	19.1
COc1ccc(-c2nnc(SCc3ccccc3F)o2)cc1OC	9.89
Cc1ccc(C)c(/C=N/Nc2ccccn2)c1	24.6
CCOC(=O)c1oc2ccccc2c1NC(=O)C1CCCCC1	-8.66
Cc1cnc(C)c(N(C)NC(=S)Nc2ccccc2)n1	-13.7
Cc1ccc2[nH]c(C)c(CCN(Cc3cccnc3)C(=S)NC(C)(C)C)c2c1	2.7
CN1CCN(c2nc3ccccn3c(=O)c2/C=C(\C#N)S(=O)(=O)c2ccc(Cl)cc2)CC1	-51.9
COc1cccc(CN(C)C(=O)c2cccc(OCc3ccccc3)c2)c1	13.1
CCOc1cccc(CN2CCCC(N3CCc4cc(OC)c(OC)cc4C3)C2)c1O (centres unmarked)	-39.3
Cc1ccc(S(=O)(=O)NCC(c2ccccc2)N2CCN(CCC#N)CC2)cc1 (centres unmarked)	-21.5

Structure (SMILES)	hERG current change (%, negative = inhibition) at 10uM [%]
O=C(COc1ccc2c3c(c(=O)oc2c1)CCCC3)NCc1ccncc1	3.34
COc1ccc2nc(Nc3nc(CSc4ccc(C)cc4)cc(=O)[nH]3)nc(C)c2c1	-13.1
COc1cccc(NC(=O)C2CCCN2S(=O)(=O)c2ccc3c(c2)C(C)(C)C(=O)N3C)c1 (centres unmarked)	-10.7
Clc1cccc(C2NCc3ccccc3-n3cccc32)c1 (centres unmarked)	15.2
CCCC(=O)Nc1cc(S(=O)(=O)N2CCCCC2)ccc1N1CCOCC1	-5.59
Oc1cnn(-c2ccccc2)c1	-0.563
CCOc1ccc(S(=O)(=O)N2CCCC(C(=O)N3CCOCC3)C2)cc1Cl (centres unmarked)	4.02
Cc1ccc(C(C(=O)NCc2ccc(F)cc2)N(CCCO)C(=O)C2COc3ccccc3O2)o1 (centres unmarked)	-38.7
O=C1NC2(CCCCC2)Cc2ccccc21	5.62
Cc1ccc(S(=O)(=O)/N=S(\C)C(C)C)cc1 (centres unmarked)	4.08
O=S(=O)(Nc1ccc(O)c2ccccc12)c1ccc(OC(F)(F)F)cc1	0.524
NC(=O)c1ccccc1NC(=O)CCCN1C(=O)CCC1=O	7.71
CC(Oc1ccc(Cl)cc1)c1ccc(C#N)c(=O)[nH]1 (centres unmarked)	-1.11
COc1ccc(NC2CC(=O)N(c3ccc(C(=O)O)cc3)C2=O)cc1 (centres unmarked)	5.73
O=C(O)CNS(=O)(=O)c1cccc(Cl)c1	7.93
COc1ccc(N2CCN(C3CC(=O)N(Cc4ccccc4)C3=O)CC2)cc1 (centres unmarked)	3.62
COc1ccc(S(=O)(=O)NCCc2csc(-c3cccnc3)n2)cc1	-30.5
C[C@@]12C(=O)N(c3cccc(F)c3)C(=O)N1[C@H](c1ccc(Cl)cc1)[C@@H]1C(=O)N(C3CCCCC3)C(=O)[C@@H]12	4.31
COc1cc(C(=O)NC(=S)Nc2ccccc2N2CCOCC2)cc(OC)c1OC	-8.15
Cc1coc2cc3oc(=O)c(CC(=O)N[C@@H](CC(C)C)C(=O)O)c(C)c3cc12	9.3
Cc1ccc(N=c2c([N+](=O)[O-])nn(-c3ccccc3)n2O)c(C)c1	-9.28
CCOc1ccc(/C=C/C(=O)N(CC)CC(=O)Nc2ccc3c(c2)OCCO3)cc1OC	-39.3
O=C(Nc1ccccc1N1CCCCC1)c1cc(S(=O)(=O)N2CCOCC2)ccc1Cl	-4.01

Structure (SMILES)	hERG current change (%, negative = inhibition) at 10uM [%]
COc1cccc(-c2nn3c(-c4cc(C)[nH]n4)nnc3s2)c1	-57.5
C=CCNC(=O)CC(C)C(CCCCC)C(=O)O (centres unmarked)	9.32
O=C(Cc1nn[nH]n1)Nc1ccc(F)cc1F	1.18
COc1ccc2c(c1)C=C(C(=O)OCc1cccnc1)CO2	3.63
O=C(COc1ccccc1)NCc1ccc2c(c1)OCO2	-3.64
CCNc1nc(Sc2ccc(C)cc2)cc(C(F)(F)F)n1	-1.85
COc1ccc2c(c1)C1CC(C)(NC(=O)C1S(=O)(=O)c1ccc(F)cc1)O2 (centres unmarked)	-9.7
O=S(=O)(c1ccccc1F)N1CCN(CCOc2ccccc2)CC1	-16.3
O=C(/C=C/c1ccco1)N1CCCC(c2ccccc2)C1 (centres unmarked)	-14.7
Cn1cnc(S(=O)(=O)N2CCN(c3ccc(Cl)cc3)CC2)c1	-14.3
Cl.Fc1ccc(-c2csc(Nc3ccccn3)n2)c(F)c1	20.3
Cn1ncc2c(Sc3ccc(Cl)cc3)ncnc21	22.7
COc1ccc(NS(=O)(=O)c2csc(C(=O)N3CCCC3)c2)cc1	-6.41
CC(Sc1nnc(-c2ccco2)n1C)C(=O)N1C(C)CCCC1C (centres unmarked)	-1.93
COC(=O)C1=C(C)OC(N)=C(C#N)C1c1cc(OC)c(OCC(N)=O)cc1Cl (centres unmarked)	-10
O=C(NCC1(N2CCOCC2)CCCCC1)c1ccc(S(=O)(=O)Nc2ccccc2F)cc1	-13.5
Clc1ccc(SCc2cc(-c3ccc(Cl)cc3)on2)cc1	11.9
Cc1c(C(=O)OCC(=O)N2CCCC(C)C2)oc2ccccc12 (centres unmarked)	-2.52
CC1CCN(c2ccccc2NC(=S)NC(=O)C(C)(C)C)CC1	14.5
Cc1ccc(NC(=O)COC(=O)c2ccccc2-c2nc3ccccc3s2)c(C)c1	35.3
